Measured values reported in PMC5011342, “A high throughput drug screening assay to identify compounds that promote oligodendrocyte differentiation using acutely dissociated and purified oligodendrocyte precursor cells” (BMC Research Notes, 2016).
Read-outs that look alike come from different tables or passages of the source.

Test system: expanded OPCs
Assay: cells
Details: Rattus norvegicus, 72 h
Procedure: Having established a consistent assay for measuring OL differentiation in vitro, the next step was to utilize this assay to assess the ability of a wide array of compounds to promote OL differentiation. Prior to library screening, we first established the maximum non-toxic dose of each compound in the library. […] Therefore, we added each compound in the NIH clinical collection (NCC) library to OPCs at 10, 1, and 0.1 µM concentrations. Three days later, we assessed viability of the treated cells by measuring AlamarBlue fluorescence, a measure of cell viability (see “Methods” section). […] Appropriately, we established three sets of screening concentrations for library compounds: non-toxic compounds were tested at 10 and 2 µM, slightly toxic compounds (only toxic at 10 µM) were tested at 2 and 0.4 µM, and very toxic compounds were tested at 0.4 and 0.08 µM.
OPCs were expanded in vitro by seeding into PDL-coated tissue culture flasks at 1000–2000 cells/cm^2 in differentiation media supplemented with 10 ng/ml PDGF-AA. Proliferating OPCs were fed every 2–3 days and supplemented with 2–3× concentration of PDGF as needed to prevent OPC differentiation. After 6–7 days of proliferation, OPCs were harvested by trypsinization, plated into PDL-coated 96-well Falcon plates and centrifuged at 200×g to facilitate cell attachment, survival, and even distribution of cells. Expanded OPCs were seeded in differentiation media at 10,000 cells/well and incubated for 2 h at 37 °C, 10 % CO2 prior to addition of compounds. The NCC library was diluted and added to cells at 10, 1, and 0.1 µM; each concentration was tested in quadruplicate. As a positive control for the induction of toxicity, 5 ng/ml tunicamycin was added to 8 wells in each plate. Three days later, a 1:10 dilution of alamarBlue® (AB) was added to each well and cells were incubated 4 h at 37 °C, 10 % CO2. AB fluorescence was measured using a PerkinElmer Victor II fluorescence microplate reader (PerkinElmer, Waltham, MA) with 560 nm excitation/590 nm emission filters. For library screening, the highest concentration of each compound was adjusted to a minimally toxic concentration based on this toxicity data. Compounds were additionally tested at a second concentration that was 1/5th of the top concentration. The final concentration of DMSO in each well was 0.1 %.

| SMILES | viability at 0.1 µM (read-out: 0.1 µM (% DMSO), alamarBlue viability, NCC library compound at 0.1 µM, sheet "All Tox data") | viability at 1 µM (read-out: 1 µM (% DMSO), alamarBlue viability, NCC library compound at 1 µM, sheet "All Tox data") | viability at 10 µM (read-out: 10 µM (% DMSO), alamarBlue viability, NCC library compound at 10 µM, sheet "All Tox data") | viability at 0.1 µM (read-out: 0.1 µM (% DMSO)) | viability at 1 µM (read-out: 1 µM (% DMSO)) | viability at 10 µM (read-out: 10 µM (% DMSO)) |
| --- | --- | --- | --- | --- | --- | --- |
| COc1cc2c(cc1OC)C(=O)C(CC1CCN(Cc3ccccc3)CC1)C2 (stereo not drawn) [Donepezil, reference compound] | 114% | 145% | 135% |  |  |  |
| COC(=O)C1=C(C)NC(C)=C(C(=O)OC)C1c1ccccc1[N+](=O)[O-] [Nifedipine] |  |  |  | 85.2% | 80% | 12.4% |
| CCn1cc(C(=O)O)c(=O)c2cc(F)c(N3CCN(C)CC3)cc21 [Pefloxacin] |  |  |  | 87.9% | 87.6% | 89.7% |
| Nc1nc2ccc(OC(F)(F)F)cc2s1 [Riluzole] |  |  |  | 76.5% | 87.3% | 75.4% |
